In the supplement of paper PMC3334620:
Over roughly 33,000 sequences, “E-score (-0.5 to 0.5)” has its median near -0.016; the highest 2% begin near 0.31. The list shows a part of the results.

What follows are sequences tested against Cst6 (UniProt P40535) (assay: PBM E-score (8-mer binding enrichment) (E-score (-0.5 to 0.5)); higher = stronger / more preferred TF binding; most listed sequences are background and not binding sites). Conditions: protein concentration: 200 nM; construct: GST-DNA-binding domain.
Procedure: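 Universal 'all 10-mer' protein binding microarrays (Agilent AMADID 015681) probed with GST-tagged S. cerevisiae TFs (full-length or DBD) made by in vitro transcription/translation (PURExpress), about 100-200 nM. Bound TF was detected with fluorescent anti-GST. Each ungapped 8-mer (which stands for itself and its reverse complement) is scored by the PBM enrichment score (E-score), a modified Wilcoxon-Mann-Whitney statistic from -0.5 to +0.5, computed with the Universal PBM Analysis Suite. Scale: above 0.35 generally sequence-specific binding.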

Sequence	PBM E-score
ATTTTCCA	0.0793
GGTCGCAC	-0.18
CTTCATAA	0.182
CCACTAGG	-0.32
AATACCGC	-0.128
CACTTCGC	0.0732
GCCTGTAC	-0.0146
CCGGCTCG	-0.128
CGACGAGA	-0.0521
CATGAAAA	0.23
GGGAACCC	-0.31
AACTGTAG	-0.045
AAGTATCC	-0.0686
CGGACACG	0.00971
AAATACAA	0.321
CGGGGGTC	-0.357
GCCAGCGA	-0.269
AGACCACT	-0.0953
AATAAGTC	-0.0407
AACTTATT	0.161
AACGGTTA	-0.0646
ACACTAGC	-0.131
ATGGGGCC	-0.312
AACAGAGA	-0.0315
CTATGTTC	-0.0423

Sequence	PBM E-score
AATAGTAT	0.19
CAATGAAG	0.0658
CCATCAAC	0.035
AAGCGGCG	0.254
GAGTGGGC	-0.208
AATTCTGC	0.1
CACAACCA	0.124
TACATCAA	0.283
AGATTTGG	-0.246
CCGACTCG	-0.194
AACGGAAG	-0.0423
CCGTTCAA	0.00244
GTAATCCA	0.143
AGAATCAA	0.0418
CCGAAACC	-0.163
ACTCCATG	-0.149
CACGCTAG	-0.123
AACTCATC	0.068
GGGCTAAC	-0.19
CGGCGTGC	-0.0962
GCAGAGCC	-0.191
CTATTGCC	-0.112
AACACTGA	0.192
ATACTCCC	-0.076
AAGTAGTA	-0.0162

Sequence	PBM E-score
CGCGAATC	0.0524
ACCAAGAA	0.193
TTCGAAAA	0.296
ATTTAGCA	0.123
TAGCAGAA	0.107
AGGATGAG	-0.0545
ACGTGGAA	0.15
AGGGAGAC	-0.219
CCTCTGGC	-0.193
GTTGCCCA	-0.135
AGCTTGTG	-0.155
GTGCTACA	-0.0692
GGATCCCC	-0.321
CATCTGCA	0.0895
CTTGGCCC	-0.272
GTTTAGTA	0.236
AAGCTCTG	-0.22
CTAAGCAA	-0.0396
ACGAATTG	0.129
GTTTTGCA	0.102
GAGCTTCA	-0.0375
AGTTTCTG	0.0556
AGCTCTCA	-0.143
CGAACGAA	0.0744
CCCAGTGC	-0.121

Sequence	PBM E-score
GATCGAAC	0.0108
CAAGTTTA	0.139
GCGGTTAC	0.191
ATAGCAGC	-0.226
AAATAAGT	0.14
ACCCTAGC	-0.247
ATACATAC	0.0814
GTAGTGGA	0.12
ACCACTCG	0.0831
CCCTCCTC	-0.264
AGTCTTTG	-0.16
GGCCTTGA	-0.206
TCTTTCAA	-0.0829
CTTTGACC	0.0719
ACGTACCA	0.195
AATCTCTC	0.082
GCATCGGA	-0.0274
CGGATTCA	-0.229
GCTGAGGA	-0.236
ACGGTTAG	-0.241
TAACAGCA	0.116
AGGAATGC	-0.148
AATCCGAG	-0.0702
AACAGCAC	0.0862
CATAGAGG	-0.0937

Sequence	PBM E-score
GCGGGTAA	-0.0692
AGCATTAT	0.115
GGCCGTAC	0.273
ACGAGGTC	0.00072
ACCCGAAA	-0.0247
GGGTATTA	-0.0844
CTCATTTC	-0.0101
CGTGAACA	0.105
AATTAGGC	0.152
ATATGTGC	0.103
ATTTGCCC	-0.00418
ACTGGTAC	-0.00774
CGTCATGA	0.461
ATACCGAG	-0.104
TAGGTCAA	0.175
CGTAATAG	0.318
ATAGTCTA	-0.173
TCCGTCCA	-0.0937
CCTAATTA	-0.00674
CCCCCATC	-0.294
GTCCTTAA	0.00524
AATCCGGC	-0.295
ACAAACAA	0.115
CTGCATCC	-0.101
ATATATTC	0.272

Sequence	PBM E-score
CAGTCATC	-0.0341
CCACCTGC	-0.0532
CCTTTCTC	-0.118
CGTACCGA	-0.0983
AGAAATCC	0.0363
AGGGATTA	0.0102
AATCCGTC	0.155
CGAAGAAG	0.00861
GAACGGGA	-0.138
ACCCAAGC	-0.273
CCTGAGCA	-0.0829
ACTACCAC	-0.0255
GTGGCGGA	-0.226
CCTTGGAA	-0.125
AGGATACA	0.0231
AAACTCTT	-0.108
GACAAGGA	-0.153
CTAGTGCC	-0.125
CAGCCACG	-0.052
ACAAGGCA	0.0619
ACTACCTG	-0.0823
GAGTGGCA	0.0514
AGTCTCAA	-0.217
GTACACAC	-0.0526
TGGGCCCA	-0.242

Sequence	PBM E-score
TAACCAAA	0.18
AAAAGGCT	-0.0129
ACTAGGTA	-0.0717
CCGACATA	-0.032
TGACTAAA	0.186
CTAAATAC	0.0876
CTTGATGA	0.24
ACCTGTCG	0.066
CGTCGAAG	0.0366
CGTCCATC	0.078
CGAAGATC	-0.0128
AGTGGTAA	0.00907
ATTGAGAA	0.164
ACCGTCGA	-0.0554
GGCGTAAA	0.153
GCCAAAAA	0.145
ATAAACAC	0.0891
CGCCGATC	0.0491
TGGGACAA	-0.0808
ACGAACAG	-0.0654
ACATTCCT	-0.116
CATCTCTA	0.136
AAGAACCG	0.123
GACCGCAA	-0.0265
GCGGTTCA	-0.158

Sequence	PBM E-score
GCAACCTA	-0.0372
CCCCCAAG	-0.23
AGCCGAAC	-0.127
CCAGCACG	-0.23
CTCAGGAC	0.0661
AACTACAT	0.0604
ACTTCTAT	-0.00535
CCTCCAGG	-0.437
ATGCACGA	-0.0573
CACAAACC	0.0115
GAGCTCCA	-0.266
ATAATTAA	0.322
AGCATCAC	0.0541
ACAAGTGT	-0.0775
ACATGGAG	-0.247
AAGACATT	-0.169
GATCGGTA	0.0438
ACGATCTG	-0.131
AGCAGGGC	-0.138
GCACCGCC	-0.232
GCATGAAA	0.117
CGCCCTGA	0.0277
CTGGTATC	-0.173
GTTTTCTA	0.228
ATAATCCG	-0.00488

Sequence	PBM E-score
AGTACTTC	0.0282
GCCCTGTA	-0.0674
GAAAAAGA	0.07
GCAAAAAA	0.207
ATTCCGGA	-0.094
GCGTTACA	0.0402
ATCTGTGG	-0.234
GCAGCAGA	-0.0713
GCGCGGGA	-0.137
GCGCCACC	-0.043
ATTTCATC	0.294
CAGGAATC	-0.0374
TATAATGA	0.273
AGAACCAG	-0.185
ATTAAGTG	0.127
GGTTCAAA	0.126
CGCACCAG	0.0262
CGTATCCC	-0.17
AGGCGAAG	-0.139
CCGCCCAA	-0.209
ATTTGCAG	0.078
GCGTTCCA	-0.0973
CAGACGCC	-0.121
CTACCTTA	-0.00472
TACAGGAA	0.0431

Sequence	PBM E-score
GAGTTCTA	-0.136
ATGATTCG	0.188
AGCGTGAT	0.01
GTACGTCA	0.49
CCTTTCAC	0.00451
ATTGGCCG	0.0339
CAACGCTC	0.0184
CAGAGGAG	-0.0824
CCTTGGCC	-0.357
GCATATTA	0.186
GCGTTTCC	0.106
AGTCGTAG	-0.0868
AGTAGACT	-0.18
GAATACTA	0.192
ATAGGTTA	0.143
GACGTTCC	0.0148
TAGCCACA	0.0365
TCTTCCAA	-0.0464
GACGAGGC	-0.0967
AACACCTT	0.113
AAACATCG	-0.0657
CATAAAAA	0.293
CCTAAATC	0.0457
GGATTCAA	-0.0994
CAGCATAA	0.0705

Sequence	PBM E-score
ACATTGCT	0.00283
CGGTCCTA	-0.329
TGGGGAAA	0.0662
AATTCTAA	0.206
CTTGTTGA	0.12
CAGGGCAG	-0.223
AGTATTCG	0.048
CAAAGTTC	-0.162
CTTATTAA	0.141
CGGCGGCC	-0.0828
TACTAACA	0.0701
CATTGTGC	0.188
GCCCATCC	-0.267
AATCGGCT	0.124
ACACCGCG	-0.122
CCTGTGAG	0.00154
GAACCGGC	-0.26
CCTTATCA	0.245
ACATTCTC	0.175
ACCCAGAC	-0.115
CGTGCGGA	0.0478
AATCCGTG	-0.0245
CAGGAGAA	-0.0565
GGTACACA	-0.237
CACAGATG	0.0492

Sequence	PBM E-score
CTAGGTTC	-0.181
ACTGGCTC	-0.245
AATCAACG	0.128
ACGTTCGC	-0.0833
CCATGAAC	-0.11
AGAACGGC	0.118
TATGGACA	0.0624
AGTTGCAC	-0.25
ATGTTAGC	0.0356
ACTCAATC	0.173
TAGTTAGA	0.0258
CAGGTGCG	0.00412
AGTCGTGC	-0.314
AGGTCCCC	-0.313
TCCTATAA	0.0701
CAATAATG	0.113
GAAGACAA	0.11
TGAAGAAA	0.138
GCCTAGAA	-0.125
CTATCCGA	-0.0289
CCACATCC	-0.138
CAGACTGG	-0.235
CCAAATCC	-0.232
GCGAGGGA	-0.223
ACATTTCC	0.13

Sequence	PBM E-score
ACATGTTG	0.161
GATTCAGC	-0.0798
ATAGCGTC	0.138
GCCACGCC	-0.126
CACTTCGA	0.245
CTACAGGC	-0.226
GGTTGTAC	-0.145
CAAAAATA	0.274
GTCGAAAC	-0.0882
ATGAACGC	0.129
GAACCGTA	-0.169
CCGCAGCG	-0.0459
GCGTAAAC	0.168
CTCGCTGA	-0.0965
ACTTTGGC	-0.252
ACTATCGA	0.0683
ATAAAACG	0.243
AGGGGTGA	-0.0823
CAAACGGG	-0.0479
CCTCACAC	-0.028
ACTACTGC	-0.132
CGAGCTCC	-0.122
GTTCCTAA	-0.062
GCATGAGA	0.0222
ACATTGAC	0.212

Sequence	PBM E-score
CCAACTCA	-0.023
GGCACAAC	0.124
CAAAGGTA	-0.0756
TGTTCCAA	0.108
GCGACCAC	-0.108
AGAACCGA	-0.127
GTACCCAA	-0.145
CACATCTA	0.252
GACTAGTC	-0.332
AGTATACC	0.0587
CAGAACCC	-0.252
CTGCCCTC	-0.253
AATGTCCC	-0.249
AGACCGGC	-0.168
AATCCGAA	-0.0449
GCATTTCA	0.0358
GATATGGA	0.154
AGGTTCGG	-0.224
ATACATTA	0.19
